Values joined by “and” are separate entries in the source; they are usually repeats but may differ in a detail not shown here. Equal values may be shown once. Among all 72,000 compounds or so, about 1,600 (2.2%) were called active. This list was built around the results that the source calls inconclusive (neither active nor inactive); the mix of calls is not that of the screen. The call rests on the fitted dose curve; in most records, active means well fitted inhibition curve with a large enough effect; inconclusive means small, poorly fitted or top-dose-only effect; inactive means flat fitted curve, though single readings scatter. No potency is given beside an inconclusive call; the fits are too rough.
Target: Luciferin 4-monooxygenase (Photinus pyralis) (UniProt P08659)
Sequence of UniProt P08659 (P08659 whole entry, looked up): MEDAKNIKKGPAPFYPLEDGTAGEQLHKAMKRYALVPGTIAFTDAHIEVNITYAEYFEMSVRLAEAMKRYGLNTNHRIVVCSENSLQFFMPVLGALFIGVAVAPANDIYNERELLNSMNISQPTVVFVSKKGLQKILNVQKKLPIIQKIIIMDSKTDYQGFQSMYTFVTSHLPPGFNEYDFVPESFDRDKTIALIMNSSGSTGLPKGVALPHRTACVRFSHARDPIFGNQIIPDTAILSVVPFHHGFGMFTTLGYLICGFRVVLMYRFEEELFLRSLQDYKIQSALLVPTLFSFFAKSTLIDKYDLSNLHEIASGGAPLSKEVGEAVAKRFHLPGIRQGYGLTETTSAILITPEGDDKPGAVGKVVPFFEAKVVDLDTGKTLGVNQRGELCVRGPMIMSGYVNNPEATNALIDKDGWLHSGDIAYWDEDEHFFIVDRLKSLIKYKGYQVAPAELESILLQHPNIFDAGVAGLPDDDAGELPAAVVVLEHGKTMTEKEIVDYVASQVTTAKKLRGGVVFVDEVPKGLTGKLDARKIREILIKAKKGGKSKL
Assay: qHTS Assay for Inhibitors of Firefly Luciferase; further: nearly all actives have a fitted effect of over 40% in size
Conditions: purified firefly luciferase, luminescence, 8 min; series mostly up to 57.1 µM
Outline: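 Inhibition of light generation by firefly luciferase from ATP and luciferin was profiled with concentration-response curves per sample, ATP held at 10 uM within the enzyme's linear range. Plates were read by luminescence after an 8-minute ambient incubation.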
On the % scale 0 is the no-effect control and ±100 the full control effect; potency means the concentration at half of the fitted maximal effect; tags describe the fitted curve by direction and shape.

Row | Structure (SMILES) | Potency | activity change, negative = inhibition
1 | COc1cccc(-c2nc(-c3ccccn3)no2)c1OC | inconclusive [inhibitor, single point] | –
2 | Cc1sc2nc3c4ccccc4c(NCc4ccco4)nn3c(=O)c2c1C | inconclusive [inhibitor, partial curve] | –
3 | Cc1cccc(-n2ncc3c(NCc4cccs4)ncnc32)c1 | inconclusive [inhibitor, single point] | –
4 | O=C(Nc1ccc(SC(F)F)cc1)c1ccc2nccnc2c1 | inconclusive [inhibitor, partial curve] | –
5 | COc1ccccc1-c1nc(-c2ccc(C)nc2OC)no1 | inconclusive [inhibitor, single point] | –
6 | COCCNC(=O)c1cc(-c2ccccc2OC)on1 | inconclusive [inhibitor, single point] | –
7 | c1coc(-c2nc3nc4ccccc4n3nc2-c2ccco2)c1 | inactive | –
8 | O=C(/C=C\c1ccc2c(c1)OCO2)c1ccc(F)cc1 | inconclusive [inhibitor, single point] | –
9 | COCCN1CCN(c2c(C)c(C)nc3cc(-c4cccc(OC)c4)nn23)CC1 | inconclusive [inhibitor, single point] | –
10 | O=C(/C=C\Nc1cccc(F)c1)c1ccc2c(c1)OCO2 | active: 0.398 µM | –
11 | Cc1cccc(OCCn2c(=O)n(C)c3ccccc32)c1 | inconclusive [inhibitor, partial curve] | –
12 | O=C(CSc1nnc(COc2ccc(Cl)cc2)n1Cc1ccco1)c1ccccc1F | inactive | –
13 | Nc1c(-c2ccccc2)n[nH]c1-c1ccccc1 | inconclusive [inhibitor, partial curve] | –
14 | Nc1nc2ccc(Oc3ccccc3)cc2s1 | inconclusive [inhibitor, single point] | –
15 | COc1cccc(Nc2nnc(SCC(=O)N3CC(C)OC(C)C3)s2)c1 (stereo not given) | inconclusive [inhibitor, single point] | –
16 | CCC(=O)Nc1ccc(S(=O)(=O)Nc2cccnc2)cc1 | inactive | –
17 | Cc1nnc(NC(=O)C2(c3ccccc3)CCOCC2)s1 | inactive | –
18 | CN(C)c1ccc(NC(=O)Cn2cc3c(n2)CCCC3)cc1 | inconclusive [inhibitor, single point] | –
19 | O=C(Nc1ccccc1)c1cc([N+](=O)[O-])ccc1Cl | inconclusive [inhibitor, single point] | –
20 | CC(C)(C)N1C(=O)[C@H]2[C@@H]3[C@H](O)[C@H](O)CC(=O)[C@H]3CC[C@H]2C1=O | – | inactive: 1.13% [at 11.4 µM] and inactive: -0.462% [at 11.4 µM]
21 | Brc1ccc(-c2cn3cccnc3n2)cc1 | inconclusive [inhibitor, full curve] | –
22 | Cc1cc(-c2nc3ncccc3o2)ccc1N | inconclusive [inhibitor, single point] | –
23 | Cc1ccc(Nc2nc(CSc3nnc(-c4cccs4)o3)cs2)cc1 | inconclusive [inhibitor, single point] | –
24 | c1ccc2[nH]c(SCc3ccc(-c4nnco4)cc3)nc2c1 | inconclusive [inhibitor, single point] | –
25 | Cc1nn(-c2ccc(C(=O)O)cc2)c(N)c1-c1ccccc1 | active: 12.6 µM | –

Row | Structure (SMILES) | Potency | activity change, negative = inhibition
26 | CC(=O)c1sc2ccccc2c1OC(=O)c1ccco1 | inactive | –
27 | CC(C)C(=O)N1CCc2cc(-c3csc(N)n3)ccc21 | inconclusive [inhibitor, single point] | –
28 | Cc1ccc(C(=O)Nc2nc3ccccc3c(=O)s2)cc1 | inconclusive [inhibitor, full curve] | –
29 | Cc1cc(C)c(-c2cc([C@H](C)O/N=C\[C@@H](C)[C@H](OCc3ccccc3)C(C)C)on2)c(C)c1 | – | inactive: 0.847% [at 11.4 µM]
30 | COc1ccccc1N1C(=O)CC(Nc2ccc(N3CCOCC3)cc2)C1=O (stereo not given) | inactive | –
31 | CC(C)(C)c1csc(NC(=O)c2cccs2)n1 | inconclusive [inhibitor, single point] | –
32 | COc1ccc(O)c(C(=O)CC(=O)c2ccccc2)c1 | active: 20 µM | –
33 | Cc1noc(NS(=O)(=O)c2ccc(N/C=C/C(=O)c3ccc4c(c3)OCO4)cc2)c1C | inconclusive [inhibitor, single point] | –
34 | COC(=O)C1CCN(C(c2cccs2)c2sc3nc(C)nn3c2O)CC1 (stereo not given) | inconclusive [inhibitor, single point] | –
35 | C/C(=C\C(=O)c1ccccc1)Nc1cccc(O)c1 | active: 7.94 µM | –
36 | CC(C)C(=O)Nc1ccc(NC(=O)c2ccccc2Cl)nc1 | inconclusive [inhibitor, single point] | –
37 | CC(C)OCCCNc1ncnc2c1[nH]c1ccc(F)cc12 | inconclusive [inhibitor, partial curve] | –
38 | Cc1nc2cnc(Nc3ccccc3)nc2n(CCc2ccccc2)c1=O | – | inactive: -6.94% [at 11.4 µM]
39 | CN1CCN(c2ccccc2NC(=O)c2ccc(-c3ccccc3)cc2)CC1 | inactive | –
40 | COc1ccc(NC(=O)c2ccccc2NS(C)(=O)=O)cc1OC | inconclusive [inhibitor, single point] | –
41 | c1coc(-c2nc3nc4ccccc4nc3n2-c2ccc3c(c2)OCCO3)c1 | inconclusive [inhibitor, single point] | –
42 | C[C@H](OP(=O)(O)O)[C@H](N)C(=O)O | – | inactive: 2.99% [at 11.4 µM]
43 | Brc1ccc(NCc2nnc3n2CCCCC3)cc1 | inconclusive [inhibitor, full curve] | –
44 | O=C(NC1c2ccccc2-c2ccccc21)N1CCCCC1 | inactive | –
45 | CSc1ccc(NC(=O)[C@H]2CCCC[C@@H]2C(=O)O)cc1 | – | inactive: 0.77% [at 11.4 µM]
46 | CCOC(=O)C1CCCN(c2ncnc3c2cnn3-c2ccc(Cl)cc2)C1 (stereo not given) | inconclusive [inhibitor, single point] | –
47 | Cc1ccc(NC(=O)N2CCC(c3nc4c(nnn4Cc4cccc(Cl)c4)c(=O)[nH]3)CC2)cc1 | inactive | –
48 | O=C(Nc1ccccc1N1CCCC1)c1cc2ccccc2o1 | inconclusive [inhibitor, single point] | –
49 | Cc1ccc2c(c1)c1c3n2CC(=C2C(=O)OC(C)(C)OC2=O)NC3CCC1 (stereo not given) | inactive | –
50 | Cc1ccc2oc(-c3ccc(NC(=O)CC(C)C)cc3)nc2c1 | inconclusive [inhibitor, full curve] | –

Row | Structure (SMILES) | Potency | activity change, negative = inhibition
51 | O=C(NCCc1c[nH]c2ccccc12)c1cnc2sccn2c1=O | inconclusive [inhibitor, partial curve] | –
52 | Cc1c(C(=O)OC2CCC(C)CC2)[nH]c2c1C(=O)CCC2 (stereo not given) | active: 15.8 µM | –
53 | O=C(Nc1nnc(C2CCCCC2)s1)c1cccs1 | inconclusive [inhibitor, single point] | –
54 | CN1CCN(c2ccc(NC(=O)c3ccccc3Br)cc2)CC1 | inconclusive [inhibitor, partial curve] | –
55 | Cc1nn2c3ccccc3nc2n(C)c1=O | inactive | –
56 | Cc1ccc(C(=O)COC(=O)c2ccc(Br)o2)cc1C | inconclusive [inhibitor, partial curve] | –
57 | O=C(O)Cc1ccc(NC(=O)c2cccs2)cc1 | inconclusive [inhibitor, partial curve] | –
58 | Cc1cc(C)nc(N(C#N)CC(=O)c2ccccc2)n1 | inconclusive [inhibitor, single point] | –
59 | COc1cccc(Nc2nnc(SCC(=O)N3CCOCC3)s2)c1 | inconclusive [inhibitor, single point] | –
60 | Cc1occc1C(=O)N1CCN(C(c2ccccc2)c2ccccc2)CC1 | inactive | –
61 | Cc1ccccc1-c1cncnc1NCc1ccccc1 | – | inactive: 1.77% [at 2.29 µM]
62 | O=C(CSc1nnc(SCc2ccc(Cl)cc2)s1)N1CCOCC1 | active: 12.6 µM | –
63 | Clc1ccccc1OCc1nc(-c2ccncc2)no1 | inconclusive [inhibitor, single point] | –
64 | CCCNC(=O)c1cc(-c2ccc(OC)cc2)on1 | active: 7.94 µM | –
65 | c1ccc(OCCSc2nnnn2C2CCCCC2)cc1 | inconclusive [inhibitor, partial curve] | –
66 | COc1ccc(C(=O)N2CCC3(CC2)CN(c2ccccc2)C3)cc1 | – | inactive: -8.21% [at 11.4 µM]
67 | O=C(c1ccccc1)c1nnc(-c2ccncc2)o1 | inconclusive [inhibitor, single point] | –
68 | Fc1ccc([C@H]2CCNC[C@H]2COc2ccc3c(c2)OCO3)cc1 | active: 5.01 µM | –
69 | O=c1cnnc(SCCc2ccccc2)[nH]1 | inconclusive [inhibitor, single point] | –
70 | CCC(=O)Nc1cccc(NC(=O)c2ccc3c(c2)OCO3)c1 | inconclusive [inhibitor, single point] | –
71 | O=C1CCCCCN1Cc1nnc(SCc2nc3ccccc3s2)n1-c1ccccn1 | inconclusive [inhibitor, single point] | –
72 | Nc1cc(-c2ccccc2)ccc1O | inconclusive [inhibitor, partial curve] | –
73 | CCCCNc1cc(C(=O)O)cc(S(N)(=O)=O)c1Oc1ccccc1 | inactive | –
74 | C[N@@+]1(Cc2ccc(Cl)c(Cl)c2)CCC[C@@H]1c1ccc[n+](Cc2ccc(Cl)c(Cl)c2)c1 | – | inactive: 1.75% [at 11.4 µM]
75 | CC1(C)COCN1S(=O)(=O)c1ccc(C(=O)Nc2nnc(-c3ccc(Cl)s3)o2)cc1 | inactive | –

From PubChem BioAssay AID411 (National Center for Advancing Translational Sciences (NCATS), 2006)
